In all, about 7,900 compounds went through this assay and about 400 (5.1%) showed an effect of 50% or more. This is one part of the list.

In this assay the target is Parkinson's disease protein 7 (PARK7/DJ1) (human, UniProt Q99497). Description: primary screen, percent inhibition; read as competition with a fluorescent probe by fluorescence polarization; higher = more effect of the substance. The following applies: 100 µM. The essentials: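 Covalent fragments at 100 μM final were incubated 2 h with 0.2 μM PARK7, then 20 nM probe JYQ-107 added for a further 2 h. Fluorescence polarization read at 480/520 nm; relative FP loss versus reference controls gave remaining enzyme activity.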
Parkinson's disease protein 7 (PARK7/DJ1), sequence (Q99497 whole entry, looked up, the tested form may be a part): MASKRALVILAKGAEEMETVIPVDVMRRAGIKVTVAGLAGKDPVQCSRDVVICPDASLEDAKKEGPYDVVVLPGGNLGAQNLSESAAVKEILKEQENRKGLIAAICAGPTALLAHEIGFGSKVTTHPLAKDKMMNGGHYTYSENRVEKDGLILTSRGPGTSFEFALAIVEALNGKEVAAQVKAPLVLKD
Take `O=C(CCl)Nc1ccc(Cl)cc1C(F)(F)F`: the Inhibition % is 2.37%.

For `CC1CN(C(=O)C=Cc2ccnn2C)CCN1` (centres unmarked), the Inhibition % is listed as 13.1%.

As for `Cc1cc(I)ccc1NC(=O)CCl`, the Inhibition % is recorded as 7.36%.

Consider `O=C(O)CC1C=CS(=O)(=O)C1` (centres unmarked), for which the Inhibition % turned out to be 7.6%.

`N#Cc1ncn(CC(=O)NCCc2cccc(Cl)c2)n1`: the Inhibition % worked out at 7.82%.

As to `C=CC(=O)N1CCc2ccc(C(=O)O)cc2CC1`, the Inhibition % turned out to be 4.84%.

For the molecule `CNCc1ccccc1B1OC(C)(C)C(C)(C)O1`, the Inhibition % was determined as 2.09%.

Take `O=C1c2ccccc2C(=O)N1CCOCCS`: the Inhibition % turned out to be 4.53%.

On to `CCOc1cc(C)c(C)cc1S(=O)(=O)n1ccnc1`, for which the Inhibition % is recorded as -3.83%.

With `Cn1ccc(NS(=O)(=O)c2cccc(S(=O)(=O)F)c2)n1`, the Inhibition % came to 97.7%.

Take `C=CC(=O)Nc1ccc(Br)cc1`: the Inhibition % is listed as 6.59%.

For the molecule `CN(c1nccs1)S(=O)(=O)C=Cc1ccccc1`, the Inhibition % amounted to 7.29%.

Regarding `CC1(C)OB(c2ccc3cc(N)ccc3c2)OC1(C)C`, the Inhibition % is given as 87.8%.

Take `C=CCN1C(=O)CSC1=CC#N`: the Inhibition % was 9.19%.

For the molecule `O=C(CCl)NNC(=O)[C@@H]1C[C@H]1c1ccc(Cl)cc1` (racemic), the Inhibition % is recorded as 4.78%.

For `N#CC(=Cc1ccc(OCC(F)F)cc1)C(N)=O`, the Inhibition % amounted to 15.7%.

`CC1(C)OB(c2ccccc2O)OC1(C)C`: the Inhibition % stood at 3.67%.

Take `N#Cc1cnc2c(F)cccn12`: the Inhibition % came to 11.6%.

`C=C(Cl)CSc1nc2ccsc2c(=O)n1C`: the Inhibition % stood at 13.1%.

For `C=CC(=O)N1CCN(C2CCNC(=O)CC2)CC1` (centres unmarked), the Inhibition % stood at 25.1%.

Regarding `O=S(=O)(F)c1ccc(S(=O)(=O)Nc2ncccc2Cl)cc1`, the Inhibition % worked out at 32.9%.

Regarding `C=CC(=O)NCc1ccccc1`, the Inhibition % stood at 1.76%.

Consider `O=C(CN1CCSC1=O)Nc1nccs1`, for which the Inhibition % stood at 10.1%.

For the molecule `O=C1CCC(=O)N1CCC(=O)N1CCC1c1ccccc1` (centres unmarked), the Inhibition % stood at 7.6%.

`C=CC(=O)N(C)Cc1ncc(C2CC2)o1`: the Inhibition % turned out to be 10.7%.

As to `C=CC(=O)N1CCC(C)(C(C)C)CC1`, the Inhibition % was 12.6%.

For `CCOc1cc(C)c(C(C)C)cc1S(=O)(=O)n1ccnc1`, the Inhibition % was 6.3%.

Take `Cc1nn(-c2ccccc2)c(C)c1CNC(=O)CCl`: the Inhibition % was determined as 13.2%.

Regarding `N#CC=Cc1ccc(F)c(F)c1`, the Inhibition % was -4.2%.

With `O=S(=O)(F)c1c[nH]c2ncc(Br)cc12`, the Inhibition % is 7.67%.

Regarding `OB(O)c1ccc(OCc2ccccc2)cc1F`, the Inhibition % came out at 10.7%.

As to `O=C(CCl)Nc1cccc(Cl)c1N1CCOCC1`, the Inhibition % was 8.83%.

`N#Cc1cc(C(=O)Nc2ccccc2)c(N)nc1S`: the Inhibition % turned out to be 1.51%.

On to `Cc1nn(S(=O)(=O)N2CCCC2)c(C)c1C`, for which the Inhibition % came to 7.29%.

`C=CC(=O)N1CC(=O)Nc2c(F)cccc21`: the Inhibition % was -0.81%.

Regarding `O=C(c1cccs1)N1CCCC(S(=O)(=O)F)C1` (centres unmarked), the Inhibition % is reported as 73.5%.

For `CC1CC(N(C)Cc2nc3ccccc3s2)C(=O)O1` (centres unmarked), the Inhibition % is recorded as 6.15%.

In the case of `N#Cc1ccc(N2CCC=C(F)C2)cn1`, the Inhibition % was 5.08%.

`Cc1cnc(C#N)c(Cl)n1`: the Inhibition % amounted to 7.46%.

In the case of `CC(NC(=O)CCl)c1cccc(Cl)c1` (centres unmarked), the Inhibition % was 7.45%.

Regarding `CC(C)c1ccc(NC(=O)CCl)cc1`, the Inhibition % turned out to be 95.8%.

Turning to `N#Cc1nc(-c2ccc(Cl)cc2)oc1NCC1CCCO1` (centres unmarked), the Inhibition % was 6.43%.

`CN(C)C(=O)Sc1cnc2c(c1)c(=O)n(C)c(=O)n2C`: the Inhibition % was 14.1%.

Turning to `CCn1c(C)cc(C(=O)Cn2cnc(C#N)n2)c1C`, the Inhibition % came to 0.239%.

Turning to `C=CC(=O)NC1CCCc2c1ccc(=O)n2C` (centres unmarked), the Inhibition % is 9.61%.

`CN1C(=O)C(=C(C#N)C(=O)N2CCCC2)c2ccccc21`: the Inhibition % is on record as 5.86%.

Regarding `CCCOc1ccc(S(=O)(=O)n2nc(C)cc2C)cc1C`, the Inhibition % is listed as 19.8%.

Turning to `CCN(Cc1cccc(C)c1)C(=O)CCl`, the Inhibition % was 21.1%.

As to `C=CC(=O)NCC1(c2cccc(Cl)c2)CCOCC1`, the Inhibition % is 2.89%.

Turning to `N#Cc1ncccc1N1CCN(c2ccc(F)cc2)CC1`, the Inhibition % was found to be 3%.

Consider `Cl.O=C(CN1CCN(C(=O)CCl)CC1)Nc1cccc(F)c1`, for which the Inhibition % came out at 8.6%.

For the molecule `CN(C)C(=O)Sc1ccccc1N.Cl`, the Inhibition % is recorded as 3.58%.

In the case of `C=CC(=O)N1CCCC1c1ccc2c(c1)OCO2` (centres unmarked), the Inhibition % is listed as 6.06%.

In the case of `FC(F)Oc1ccc(C2CO2)cc1` (centres unmarked), the Inhibition % was 8%.

For the molecule `CSc1ccccc1NC(=O)CCl`, the Inhibition % is on record as 4.72%.

In the case of `CC1CCCC(NC(=O)CCN2C(=O)CCC2=O)C1` (centres unmarked), the Inhibition % was determined as 12.4%.

On to `Cc1cc(NC(=O)CN2CCSC2=O)no1`, for which the Inhibition % was 2.84%.

With `C=CC(=O)N1CCC1c1ccccc1` (centres unmarked), the Inhibition % is 10.5%.

Regarding `C=CC(=O)N1CCc2cc(C)ccc21`, the Inhibition % amounted to 2.47%.

As to `c1csc(C2OCCO2)n1`, the Inhibition % is given as 1.86%.

On to `CCOc1cccc(CNC(=O)CCl)c1`, for which the Inhibition % is 0.636%.

As for `Cl.Cl.NC1CCN(C(=O)C=Cc2ccnc3ccccc23)C1` (centres unmarked), the Inhibition % stood at 14.5%.

On to `O=S(=O)(C=Cc1ccc(Cl)cc1)NCc1ccco1`, for which the Inhibition % came out at 8.72%.

For `O=C(O)c1ccc(NS(=O)(=O)C=Cc2ccccc2)cc1`, the Inhibition % is listed as 6.88%.

For `C=CC(=O)N[C@H]1[C@@H]2COC[C@@H]21`, the Inhibition % turned out to be 9.24%.

For `C=CC(=O)N(C)Cc1n[nH]c(=O)o1`, the Inhibition % amounted to 12.6%.

Take `C=CC(=O)N1CCC2OCCCC2C1` (centres unmarked): the Inhibition % worked out at 7.7%.

Regarding `C=CC(=O)NCc1cccc(N2CCCS2(=O)=O)c1`, the Inhibition % is recorded as 6.66%.

As for `C=CC(=O)N1CCC(C(N)=O)c2ccccc21` (centres unmarked), the Inhibition % amounted to 9.56%.

For `O=C(CCl)N1CCN(S(=O)(=O)c2ccccc2)CC1`, the Inhibition % was found to be 8.48%.

For `Cc1ccc(N2C(=O)CN=C2S)cc1Cl`, the Inhibition % worked out at 7.52%.

As for `CSCC(C)NC(=O)c1ccc(C#N)[nH]1` (centres unmarked), the Inhibition % is listed as 7.59%.

For the molecule `CCCn1c(C)cc(C(=O)CCl)c1C`, the Inhibition % is 56%.

As to `C=CC(=O)NCC1CC12CC2` (centres unmarked), the Inhibition % is reported as 12.5%.

As for `C=CC(=O)NC1CCN(c2ccn(C)n2)C1=O` (centres unmarked), the Inhibition % is given as -2.57%.

Turning to `N#Cc1ccc(N2CC(O)CC2c2cccc(F)c2)cn1` (centres unmarked), the Inhibition % is given as 3.63%.

`Cc1ccsc1C=C(C#N)C(=O)NCCN1CCCCC1`: the Inhibition % stood at 8.55%.

`C=CC(=O)NCCc1cnc(C)cn1`: the Inhibition % is reported as 5.67%.

For the molecule `N#CN(CC1CCOC1)c1ccccc1F` (centres unmarked), the Inhibition % is given as 6.11%.

In the case of `C=CC(=O)NC1(C(N)=O)CCOc2ccccc21` (centres unmarked), the Inhibition % turned out to be 6.88%.

In the case of `N#CC(=Cc1ccc2c(c1)OCCO2)C(N)=S`, the Inhibition % was found to be 14.6%.

Consider `COC1CC(Nc2cccnc2C#N)C1(C)C` (centres unmarked), for which the Inhibition % worked out at 6.92%.

On to `CC(NC(=O)Oc1ccccc1)C(=O)O` (centres unmarked), for which the Inhibition % is 10.1%.

Take `C=CC(=O)NCC1(C)CCOCC1`: the Inhibition % is 4.38%.

Turning to `O=C(CCl)NCCc1cnn(-c2ccccc2)c1`, the Inhibition % is recorded as 18.9%.

For the molecule `C=CC(=O)Nc1ccc2c(c1)N(CC#N)CC2`, the Inhibition % came out at 10.2%.

On to `Cc1nonc1C(=O)CCl`, for which the Inhibition % was found to be 97.9%.

Consider `Cc1nc(C=C(C#N)C(=O)NC(C)C)[nH]c1C`, for which the Inhibition % is reported as 9.05%.

As to `C=CC(=O)N1CCC(CNC(C)=O)CC1`, the Inhibition % is recorded as 25%.

In the case of `C=CC(=O)NC1COc2cccc(C)c2C1` (centres unmarked), the Inhibition % was 1.76%.

Take `C=CC(=O)N1CCCC1c1ccc(N(C)C)nn1` (centres unmarked): the Inhibition % worked out at 14.7%.

As for `CCN(Cc1ccccn1)C(=O)c1cccnc1S`, the Inhibition % was 10.5%.

For `CC1CC1C(=O)N1CCC(S(=O)(=O)F)CC1` (centres unmarked), the Inhibition % is on record as 72.2%.

On to `NS(=O)(=O)c1ccc(CCN2C(=O)CCC2=O)cc1`, for which the Inhibition % is reported as 14.1%.

Consider `CSc1ccccc1OCC1CO1` (centres unmarked), for which the Inhibition % came to 7.25%.

With `O=c1[nH]nc(-c2ccc(F)cc2)o1`, the Inhibition % is reported as 6.22%.

As for `C=CC(=O)NCc1ccc2[nH]cnc2c1`, the Inhibition % was determined as 26.1%.

As for `COc1ccnc(C#N)c1`, the Inhibition % is 5.08%.

`O=C(O)c1ccoc1CS`: the Inhibition % is given as 64.1%.

In the case of `C=CC(=O)N1CCC2(CC(OCC)C2)C1` (centres unmarked), the Inhibition % came to 4.92%.

For the molecule `C=CC(=O)NCc1cc2n(n1)CCCO2`, the Inhibition % was 18.2%.

Regarding `C=CC(=O)NCC1CCC2(CCOCC2)C1O` (centres unmarked), the Inhibition % is 10.5%.

Take `O=S1(=O)C=CC(Nc2ccc(F)cc2)C1` (centres unmarked): the Inhibition % stood at 13.6%.

As to `COc1ccc(N(C#N)CC(=O)NC2CC2)cc1Cl`, the Inhibition % came out at 6.85%.

On to `Cc1cc(C#N)cc(C(=O)O)n1`, for which the Inhibition % came out at 4.24%.

For `O=C(CCl)Nc1cccc(C(=O)NC2CC2)c1`, the Inhibition % is recorded as 19.3%.

With `O=C(NCCN1CCOCC1)Oc1ccccc1`, the Inhibition % is reported as 4.01%.

On to `CCOc1ccc(S(=O)(=O)n2cccn2)cc1CC`, for which the Inhibition % came to 7.29%.

Take `Cn1cc(NS(=O)(=O)c2cccc(S(=O)(=O)F)c2)ccc1=O`: the Inhibition % is 103%.

Turning to `CC1(C)CCCN1c1ccc(S(=O)(=O)F)cn1`, the Inhibition % worked out at 1.78%.

Take `CC(C)c1ccc(CCNC(=O)CCl)cc1`: the Inhibition % was found to be 22%.

Consider `CC1(C)SC(=O)N(CC2(O)CCCCC2)C1=O`, for which the Inhibition % is 9.19%.

With `O=S(=O)(F)c1ccc(S(=O)(=O)Nc2cccc(F)n2)cc1`, the Inhibition % is listed as 54.7%.

As for `Cc1ccc(O)c(C(=O)c2cnn(C(N)=O)c2)c1`, the Inhibition % was 6.48%.

Regarding `CC1(C)OB(c2ccc(SC(F)(F)F)nc2)OC1(C)C`, the Inhibition % is 4.22%.

With `COC(=O)c1ccc(CNC(=O)CCl)cc1`, the Inhibition % worked out at 12.2%.

Regarding `N#CC(=Cc1ccc(O)cc1)C(=O)NCc1ccco1`, the Inhibition % amounted to 13.3%.

In the case of `CC1(C)OB(c2ccc3c(c2)CCCNC3=O)OC1(C)C`, the Inhibition % was determined as 23.6%.

Regarding `O=C1SCCN1CCC(=O)N1CCOc2ccccc21`, the Inhibition % amounted to 4.72%.

For `C=CC(=O)N1CCC(c2nc(C(=O)O)cs2)CC1`, the Inhibition % came out at 3.5%.

As for `Cc1ccc(S(=O)(=O)NC(=O)CCl)cc1`, the Inhibition % amounted to 12.1%.

Regarding `COC(=O)C1CC(S(=O)(=O)F)CN1C(=O)C1CCOCC1` (centres unmarked), the Inhibition % amounted to 9.64%.

As to `Cc1ccc(B2OC(C)(C)C(C)(C)O2)cn1`, the Inhibition % is given as 2.59%.

For `CNC(=O)C1CCN(C(=O)CCl)CC1`, the Inhibition % amounted to 8.41%.

With `C=CC(=O)N1CCOC(C)(CC)C1` (centres unmarked), the Inhibition % was determined as 0.755%.

These data come from PMC9574860, “Chemical Toolkit for PARK7: Potent, Selective, and High-Throughput” (Journal of Medicinal Chemistry, 2022).
